From patent US20190365891A1 (SCHOLAR ROCK, published 2019)

Key:
CD64 (FcgRI) = CD64 (FcgRI) (UniProt P12314 16-292, limits assumed); assay: ELISA, relative to the IgG1 variant of Ab1
complement component C1q = target: T1, complement component C1q (UniProt P02745; P02746; P02747); assay: ELISA, relative to the IgG1 variant of Ab1
T1 construct: the three subunit chains are from general knowledge

B1: Ab2, Ab1 with germline framework residues, IgG4 (S228P), lambda (antibody)
heavy: QVQLVESGGGVVQPGRSLRLSCAASGFTFSSYGMHWVRQAPGKGLEWVAVISYDGSNKYYADSVKGRFTISRDNSKNTLYLQMNSLRAEDTAVYYCARDLLVRFLEWSHYYGMDVWGQGTTVTVSSASTKGPSVFPLAPCSRSTSESTAALGCLVKDYFPEPVTVSWNSGALTSGVHTFPAVLQSSGLYSLSSVVTVPSSSLGTKTYTCNVDHKPSNTKVDKRV[no letters for human IgG4 Fc with S228P (EU numbers)]
light: QSVLTQPPSASGTPGQRVTISCSGSSSNIGSNTVHWYQQLPGTAPKLLIYSDNQRPSGVPDRFSGSKSGTSASLAISGLQSEDEADYYCAAWDDSLNGVFGGGTKLTVLGQPKAAPSVTLFPPSSEELQANKATLVCLISDFYPGAVTVAWKADSSPVKAGVETTTPSKQSNNKYAASSYLSLTPEQWKSHRSYSCQVTHEGSTVEKTVAPTECS
notes: also called Ab2 germline
Relative CD64 Binding @ EC50 (%) (CD64 (FcgRI)): 5%
Relative C1q Binding @ EC50 (%) (complement component C1q): 8%
